Measured values reported in PubChem BioAssay AID504832 (National Center for Advancing Translational Sciences (NCATS), 2011).
Hit rate of the full screen: of about 310,000 compounds, about 18,000 (5.8%) were called active. Inconclusive means that the source gave no clear call. Such entries were picked first, then a sample of the others. Calls follow the shape of the dose curve; as a rule, active = well fitted inhibition curve with a large enough effect; inconclusive = small, poorly fitted or top-dose-only effect, or another doubt; inactive = no such curve, though single readings can be large or run the other way. No potency is given beside an inconclusive call; the fits are too rough.

Assay: Primary qHTS for delayed death inhibitors of the malarial parasite plastid, 48 hour incubation
Settings: P. falciparum luciferase growth in erythrocytes; series mostly up to 28.7 µM; activity change, negative = inhibition: at the top concentration
How it was run: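 In quantitative HTS format, infected erythrocytes bearing luciferase-reporter parasites were treated for a single generation at 37 C. Luminescence after adding detection reagent served as the growth measure.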
% is scaled to controls: 0 for no effect and ±100 for the full control effect; potency is read from the fitted curve at half-maximal effect; tags tell the direction and shape of the fitted curve.

| SMILES | Potency | activity change, negative = inhibition |
| --- | --- | --- |
| Cc1ccc(NC(=O)C2CCN(S(=O)(=O)c3ccc4c(c3)NC(=O)C(C)S4)CC2)c(C)c1 (centres undefined) | inconclusive [inhibitor, partial curve] |  |
| O=C(c1cccc(C(F)(F)F)c1)N1CCc2c([nH]c3ccccc23)C1C(F)(F)F (centres undefined) | active: 8.28 µM |  |
| Cc1ncc(CN2CCC(C(=O)Nc3ccc(-n4cccn4)cc3)CC2)s1 | active: 1.04 µM |  |
| COc1ccc(C(=O)NCc2c(C)nn(Cc3ccccc3)c2C)cc1S(=O)(=O)N1CCOCC1 | inconclusive [inhibitor, partial curve, poor fit] |  |
| Fc1cc(F)c2nc(Nc3nc4cc5c(cc4s3)OCO5)sc2c1 |  | inactive: 41.6% |
| CCn1c2ccccc2c2cc(NC(=O)COC(=O)c3ccc(NC(=O)CC#N)cc3)ccc21 |  | inactive: 0.907% |
| CCn1ccnc1CN1CCCCC1C(=O)Nc1ccc(Oc2cccnc2)cc1 (centres undefined) | inconclusive [inhibitor, partial curve, poor fit] |  |
| CSc1ccccc1NC(=O)CN(C)C(=O)c1c(C)nn(Cc2ccccc2)c1C | inconclusive [inhibitor, single point] |  |
| O=C(Nc1ccc(Cl)cc1)N1CCN(Cc2ccc3c(c2)OCO3)CC1 | inconclusive [inhibitor, partial curve, poor fit] |  |
| C(#Cc1ccccc1)C[N+]1(CC#Cc2cccc3ccccc23)CCOCC1 | inconclusive [inhibitor, full curve, poor fit] |  |
| COc1ccccc1NC(=O)CSCc1nc2ccccc2[nH]1 | inconclusive [inhibitor, single point] |  |
| O=C(COC(=O)c1ccc(Br)cc1)NCCC1=CCCCC1 |  | inactive: -3.82% |
| Cc1ccc(NC(=O)CSC2=C(C#N)C(c3ccc4c(c3)OCO4)C3=C(CCCC3=O)N2)c(C)c1 (centres undefined) | inconclusive [inhibitor, partial curve, poor fit] |  |
| Cc1cccc(N2CCN(C(=O)CNC(=O)c3cccc([N+](=O)[O-])c3)CC2)c1C |  | inactive: -13.3% |
| Cc1ccc(SCCC(=O)N2CCOCC2)cc1 |  | inactive: 53.6% |
| Cc1ccc(CSc2nnc(CCCCCNC(=O)OC(C)(C)C)o2)cc1 | inconclusive [inhibitor, single point] |  |
| Cc1c(C)n(Cc2ccccc2)c2ncnc(N)c12 |  | inactive: -4.31% |
| CN(C)S(=O)(=O)c1ccc(-c2csc(-c3cccnc3)n2)cc1 | inconclusive [inhibitor, single point] |  |
| COc1cc(S(=O)(=O)NCC(c2ccco2)N2CCCCC2)ccc1NC(C)=O (centres undefined) | inconclusive [inhibitor, single point] |  |
| Cc1cccc(C(=O)NCC(=O)NC2CCC(C)CC2)c1 (centres undefined) |  | inactive: -2.21% |
| CN1CCN(c2ccc(S(=O)(=O)N3CCCCC3)cc2NC(=O)COc2ccc(F)cc2)CC1 | inconclusive [inhibitor, partial curve] |  |
| O=C(c1cc(=O)[nH]c2ccccc12)N1CCN(S(=O)(=O)c2ccc(Cl)cc2)CC1 | inconclusive [inhibitor, single point] |  |
| CCCN(CC(=O)Nc1ccccc1C)C(=O)c1ccc(Cl)c(S(=O)(=O)N2CCCC2)c1 | inconclusive [inhibitor, partial curve] |  |

| SMILES | Potency | activity change, negative = inhibition |
| --- | --- | --- |
| CCc1cc2c3c(c1)C1(C(=O)N3C(C)(C)CC2C)C(C#N)=C(N)N2C(=C1C#N)Nc1ccccc12 (centres undefined) | active: 9.28 µM |  |
| Cc1ccc(C(=O)NC(=S)Nc2ccc(S(=O)(=O)N3CCN(C)CC3)cc2)cc1 | inconclusive [inhibitor, single point] |  |
| Fc1ccc2c(c1)C(c1ccncc1)=NNC(c1cccnc1)=N2 | inconclusive [inhibitor, full curve, poor fit] |  |
| COc1ccc(NC(=O)CSc2nnc(CCC(=O)Nc3ccc(C)c(Cl)c3)n2C)cc1 | inconclusive [inhibitor, single point] |  |
| N=C1C(c2nc(-c3ccc(Cl)cc3)cs2)=C(O)CN1CCCN1CCOCC1 | inconclusive [inhibitor, single point] |  |
| CCCCn1c(N)c(N(CCOC)C(=O)c2ccc(COc3ccccc3)o2)c(=O)[nH]c1=O | inconclusive [inhibitor, single point] |  |
| COC(=O)C1=C(C)C(c2ccc(OC)cc2)NC(=S)N1 (centres undefined) |  | inactive: -4.83% |
| O=C(N/N=C\c1ccccn1)c1ccccc1O | inconclusive [inhibitor, partial curve] |  |
| CCOc1cccc(/C=N/NC(=O)c2ccc3c(c2)OCCO3)c1O | inconclusive [inhibitor, single point] |  |
| CN1C2C=C3C(C#N)=C(N)C(C#N)(C#N)[C@@H](c4ccc(Cl)cc4)[C@@H]3C1CC2 (some centres undefined) | inconclusive [inhibitor, single point] |  |
| O=C(Oc1c(Cl)cc(Cl)c2cccnc12)c1cccc([N+](=O)[O-])c1 | inconclusive [inhibitor, partial curve] |  |
| COc1ccccc1NC(=S)N(CCc1nc2cc(C)c(C)cc2[nH]1)Cc1cccnc1 | active: 10.4 µM |  |
| NS(=O)(=O)c1cccc(NC(=S)NC(=O)c2cccc([N+](=O)[O-])c2)c1 |  | inactive: 27% |
| CCNc1ccc(S(=O)(=O)N(C)C)cc1NCC(=O)Nc1ccc(F)c(Cl)c1 | inconclusive [inhibitor, single point] |  |
| CC(C)N(Cc1cn[nH]c1-c1ccc(-c2ccccc2)cc1)Cc1nccn1C | inconclusive [inhibitor, single point] |  |
| CC(C)(C)OC(=O)N1CCC(NC(=O)c2nc[nH]c2C(=O)N2CCN(C(=O)OC(C)(C)C)CC2)CC1 | active: 10.4 µM |  |
| COc1ccc(C(=O)Nc2ccc(Cl)cn2)cc1S(=O)(=O)N1CCCC1 | inconclusive [inhibitor, single point] |  |
| COc1ccc(NC(=O)c2c(OC)cccc2OC)c(OC)c1 | active: 4.65 µM |  |
| O=C(O)CCC(=O)N1N=C(c2ccc(Br)cc2)CC1c1cccc(Br)c1 (centres undefined) | active: 6.57 µM |  |
| CCOC(=O)N1CCN(C(=O)c2ccc3nc(-c4ccccc4)c(-c4ccccc4)nc3c2)CC1 | inconclusive [inhibitor, partial curve] |  |
| CC(C)c1nc(SCC(=O)c2ccccc2)c2c(=O)n(C)c(=O)n(C)c2n1 |  | inactive: 8.04% |
| CC(C)CCNC(=O)C12CN(Cc3ccccc3)CC1C(c1cccc([N+](=O)[O-])c1)=NO2 (centres undefined) | inconclusive [inhibitor, single point] |  |
| COc1cccc(NC(=O)C(Sc2nc3ccccc3c(=O)n2CC(C)C)c2ccccc2)c1 (centres undefined) | inconclusive [inhibitor, full curve] |  |

| SMILES | Potency | activity change, negative = inhibition |
| --- | --- | --- |
| Cc1c(NC(=S)N/N=C/c2ccc(Br)cc2)c(=O)n(-c2ccccc2)n1C |  | inactive: 8.2% |
| CCOC(=O)c1nn(-c2ccc(F)cc2)c(-c2ccccc2)c1C(=O)c1ccccc1 | inconclusive [inhibitor, single point] |  |
| CN(CCCC(=O)Nc1ccccc1)S(=O)(=O)c1ccc(Cl)cc1 |  | inactive: -19.7% |
| Cc1ccc2oc(-c3ccc(NC(=O)c4ccncc4)cc3O)nc2c1 |  | inactive: 50.8% |
| CCCC(C(=O)NCc1ccco1)N(Cc1ccco1)C(=O)CNS(=O)(=O)c1ccccc1 (centres undefined) |  | inactive: -7.37% |
| CCOc1ccc(N(CC(=O)NCc2ccc3c(c2)OCO3)C(=O)c2csnn2)cc1 |  | inactive: -9.71% |
| CCCCCn1c(N)c(C(=O)NCCN2CCOCC2)c2nc3ccccc3nc21 | inconclusive [inhibitor, partial curve] |  |
| Cc1[nH]c(C)c(S(=O)(=O)NCc2ccc(OC(C)C)cc2)c1C(=O)N1CCCC1 |  | inactive: -1.29% |
| COc1ccc(/C=C/C(=O)Nc2cc(C)on2)cc1 | inconclusive [inhibitor, partial curve, poor fit] |  |
| Cc1nc(CS(=O)(=O)c2ccccc2)cc(Sc2ccc(Cl)cc2Cl)n1 | inconclusive [inhibitor, single point] |  |
| Cc1ccc(C(=O)N2CCN(c3ccc(NC(=S)NC(=O)c4cccs4)cc3)CC2)cc1 | inconclusive [inhibitor, partial curve] |  |
| O=C(Nc1nc(-c2ccc(Cl)s2)cs1)c1ccncc1 |  | inactive: -12.3% |
| COCCNC(=S)N(CCc1c(C)[nH]c2ccc(F)cc12)Cc1ccco1 | inconclusive [inhibitor, partial curve] |  |
| CC1CCc2sc(C(=O)N(C)CC(=O)Nc3ccc(N4CCOCC4)cc3)cc2C1 (centres undefined) | inconclusive [inhibitor, single point] |  |
| COc1ccc(Oc2ccccc2C#N)cc1 |  | inactive: 5.05% |
| O=C(N/N=C/c1sc(N2CCOCC2)nc1-c1ccccc1)c1ccccc1O | active: 5.22 µM |  |
| COC(=O)N=Nc1c(O)[nH]c2ccc(Br)cc12 |  | inactive: 46.5% |
| Cc1nn(C2CCS(=O)(=O)C2)c(C)c1CN(C)C(=O)c1ccc(Cl)cc1 (centres undefined) |  | inactive: 11.7% |
| O=C1CN=C(c2ccccc2)c2oc3ccc(Br)cc3c2N1 |  | inactive: 2.48% |
| CCOc1ccccc1NC(=O)C1CCC(CNc2c(N3CCCCC3)c(=O)c2=O)CC1 (centres undefined) | inconclusive [inhibitor, partial curve] |  |
| COc1ccc(CCNC(=O)Cn2cccc2C(=O)c2ccccc2)c(OC)c1 |  | inactive: -3.17% |
| CCCCCOC(=O)C1=C(C)Nc2ncnn2C1c1cccs1 (centres undefined) | inconclusive [inhibitor, single point] |  |
| O=C(NC(=S)Nc1cccc(Cl)c1N1CCCCC1)c1ccc2c(c1)OCCO2 | inconclusive [inhibitor, single point] |  |
